The assay deals with T1, human IL-2 receptor (IL-2Rα, IL-2Rβ, IL-2Rγ) (human, UniProt P01589 22-272; P14784 27-551; P31785 23-369).
T1 sequence (looked up) 1: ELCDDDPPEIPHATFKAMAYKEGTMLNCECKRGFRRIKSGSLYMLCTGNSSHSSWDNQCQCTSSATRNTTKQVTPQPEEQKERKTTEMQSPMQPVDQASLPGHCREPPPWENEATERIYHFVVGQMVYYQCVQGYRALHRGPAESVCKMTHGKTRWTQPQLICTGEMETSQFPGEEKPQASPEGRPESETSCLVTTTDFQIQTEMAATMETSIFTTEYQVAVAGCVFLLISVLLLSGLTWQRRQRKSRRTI
T1 sequence (looked up) 2: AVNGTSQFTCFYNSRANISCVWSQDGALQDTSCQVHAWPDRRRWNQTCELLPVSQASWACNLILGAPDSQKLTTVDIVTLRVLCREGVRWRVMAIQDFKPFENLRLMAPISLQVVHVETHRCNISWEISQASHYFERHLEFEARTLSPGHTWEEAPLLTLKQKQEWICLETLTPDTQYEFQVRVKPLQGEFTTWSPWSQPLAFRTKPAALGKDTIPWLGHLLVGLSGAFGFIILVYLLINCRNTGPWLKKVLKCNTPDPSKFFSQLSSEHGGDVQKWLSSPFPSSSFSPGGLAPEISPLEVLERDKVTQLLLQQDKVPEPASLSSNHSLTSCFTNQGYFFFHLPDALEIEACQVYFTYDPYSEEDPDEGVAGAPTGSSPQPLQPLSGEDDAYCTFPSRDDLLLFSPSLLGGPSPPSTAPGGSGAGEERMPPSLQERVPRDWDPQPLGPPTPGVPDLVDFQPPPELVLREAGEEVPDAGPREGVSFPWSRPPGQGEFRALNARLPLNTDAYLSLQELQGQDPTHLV
T1 sequence (looked up) 3: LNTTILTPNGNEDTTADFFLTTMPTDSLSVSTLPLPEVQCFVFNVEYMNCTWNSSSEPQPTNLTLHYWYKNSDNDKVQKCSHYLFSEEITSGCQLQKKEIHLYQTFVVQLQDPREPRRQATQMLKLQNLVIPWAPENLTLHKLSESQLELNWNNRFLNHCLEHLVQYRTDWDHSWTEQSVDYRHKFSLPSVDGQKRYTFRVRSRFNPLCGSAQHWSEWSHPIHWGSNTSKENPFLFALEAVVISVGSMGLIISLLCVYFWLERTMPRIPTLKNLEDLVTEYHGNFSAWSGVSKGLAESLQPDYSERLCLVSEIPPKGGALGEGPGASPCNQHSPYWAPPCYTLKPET
In words: cell-based or functional assay.

B1: parental PD-L2-Fc fusion protein (Fc fusion)
chain: LFTVTVPKELYIIEHGSNVTLECNFDTGSHVNLGAITASLQKVENDTSPHRERATLLEEQLPLGKASFHIPQVQVRDEGQYQCIIIYGVAWDYKYLTLKVKASYRKINTHILKVPETDEVELTCQATGYPLAEVSWPNVSVPANTSHSRTPEGLYQVTSVLRLKPPPGRNFSCVFWNTHVRELTLASIDLQSQMEPRTHPT[letters of human IgG1 Fc with changes left out]
On to B1, for which the “Percent IL-2 signal transduction (HEK-IL-2 reporter assay)” value turned out to be 0% and the “Percent IL-2 signal transduction (HEK-PD-1-IL-2 reporter assay)” value turned out to be 0%.

The values are drawn from patent publication US20240190962A1 (IMMUNOWAKE, published 2024).
